Reference: the supplement of paper PMC4604168 (melanoma cell lines)
Some of the results follow. Single values are uncertain, as repeats are few or missing.

Assays:
Assay in all cases: cell count relative to DMSO control; melanoma cells; higher = more viable cells
Conditions in all cases: library dose: standard library concentration; 72 h
[1] = test system: SkMel28
[2] = test system: SkMel2
[3] = test system: SkMel30
[4] = test system: SkMel5
[5] = test system: UACC257
[6] = test system: UACC62
[7] = test system: WM115
[8] = test system: WM1716
[9] = test system: WM1745
[10] = test system: WM3526
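Note: cells treated in 1,536-well plates, then fixed and DAPI-stained, with nuclei counted from automated high-throughput microscope images.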

Row | Compound | cell count [1] [%] | cell count [2] [%] | cell count [3] [%] | cell count [4] [%] | cell count [5] [%] | cell count [6] [%] | cell count [7] [%] | cell count [8] [%] | cell count [9] [%] | cell count [10] [%]
1 | Cn1cc(C2=C(c3cn(C4CCN(Cc5ccccn5)CC4)c4ccccc34)C(=O)NC2=O)c2ccccc21 [Enzastaurin] + CCCS(=O)(=O)Nc1ccc(F)c(C(=O)c2c[nH]c3ncc(Cl)cc23)c1F [PLX4720] (first compound 4 µM, partner dose 0.4 µM) | 53 | 108 | 88.7 | 65.4 | 116 | 55.6 | 77.3 | 68.6 | 90.5 | 61.6
2 | C[C@]12O[C@H](C[C@]1(O)CO)n1c3ccccc3c3c4c(c5c6ccccc6n2c5c31)CNC4=O [Lestaurtinib] + Cc1cc(Nc2cc(N3CCN(C)CC3)nc(/C=C/c3ccccc3)n2)n[nH]1 [ENMD2076] (first compound 0.02 µM, partner dose 0.2 µM) | 44.3 | 112 | 88.2 | 59.9 | 87.4 | 69.2 | 51.4 | 79.4 | 79.6 | 70.9
3 | C[C@]12O[C@H](C[C@]1(O)CO)n1c3ccccc3c3c4c(c5c6ccccc6n2c5c31)CNC4=O [Lestaurtinib] + CO[C@H]1C[C@@H]2CC[C@@H](C)[C@@](O)(O2)C(=O)C(=O)N2CCCC[C@H]2C(=O)O[C@H]([C@H](C)C[C@@H]2CC[C@@H](OCCO)[C@H](OC)C2)CC(=O)[C@H](C)/C=C(\C)[C@@H](O)[C@@H](OC)C(=O)[C@H](C)C[C@H](C)/C=C/C=C/C=C/1C [everolimus] (first compound 0.02 µM, partner dose 0.1 µM) | 43.1 | 70.4 | 55.2 | 44.9 | 90 | 64.4 | 56.8 | 77.8 | 90.2 | 60
4 | N.N.[Cl][Pt][Cl] [cisplatin] + Cc1cc(N2CCOCC2)cc2[nH]c(-c3c(NC[C@@H](O)c4cccc(Cl)c4)cc[nH]c3=O)nc12 [BMS536924] (first compound 8 µM, partner dose 1 µM) | 96.5 | 74.7 | 98.2 | 65.1 | 91.9 | 114 | 94.7 | 87 | 61.4 | 90.4
5 | C[C@]12O[C@H](C[C@]1(O)CO)n1c3ccccc3c3c4c(c5c6ccccc6n2c5c31)CNC4=O [Lestaurtinib] + Cn1cncc1[C@@](N)(c1ccc(Cl)cc1)c1ccc2c(c1)c(-c1cccc(Cl)c1)cc(=O)n2C [tipifarnib] (first compound 0.02 µM, partner dose 0.05 µM) | 34 | 56.6 | 73.2 | 51.2 | 81.4 | 62 | 46.5 | 59.4 | 76.2 | 59.6
6 | C[C@]12O[C@H](C[C@]1(O)CO)n1c3ccccc3c3c4c(c5c6ccccc6n2c5c31)CNC4=O [Lestaurtinib] + C#Cc1cccc(Nc2ncnc3cc(OCCOC)c(OCCOC)cc23)c1 [erlotinib] (first compound 0.02 µM, partner dose 4 µM) | 53.5 | 84.5 | 64 | 46.2 | 91.5 | 42.7 | 54.7 | 65.4 | 73.3 | 59.4
7 | C[As](C)SC[C@H](NC(=O)CC[C@H](N)C(=O)O)C(=O)NCC(=O)O [Darinaparsin] + COc1ccc(Cl)c(Nc2nc3ccccc3nc2NS(=O)(=O)c2cccc(NC(=O)C(C)(C)N)c2)c1 [XL147] (first compound 2 µM, partner dose 4 µM) | 96.8 | 97.3 | 92.3 | 66.6 | 86.2 | 57.7 | 101 | 68.6 | 85.1 | 74.8
8 | N.N.[Cl][Pt][Cl] [cisplatin] + C[C@]1(c2nc3c(C(N)=O)cccc3[nH]2)CCCN1 [Veliparib] (first compound 8 µM, partner dose 7 µM) | 27.1 | 41.5 | 67.7 | 65 | 67 | 48.7 | 54.1 | 73.9 | 67.1 | 78.1
9 | C[As](C)SC[C@H](NC(=O)CC[C@H](N)C(=O)O)C(=O)NCC(=O)O [Darinaparsin] + N#Cc1c(O)c2c(-c3ccc(-c4ccccc4O)cc3)csc2[nH]c1=O [A769662] (first compound 2 µM, partner dose 10 µM) | 64.5 | 102 | 95.5 | 55.8 | 72.6 | 91.7 | 84.9 | 71.2 | 94.4 | 80.2
10 | N.N.[Cl][Pt][Cl] [cisplatin] + COc1ccc(Cl)c(Nc2nc3ccccc3nc2NS(=O)(=O)c2cccc(NC(=O)C(C)(C)N)c2)c1 [XL147] (first compound 8 µM, partner dose 4 µM) | 100 | 87.4 | 112 | 111 | 49.8 | 84.7 | 115 | 107 | 100 | 81
11 | Cn1cc(C2=C(c3cn(C4CCN(Cc5ccccn5)CC4)c4ccccc34)C(=O)NC2=O)c2ccccc21 [Enzastaurin] + CC(=O)O[C@@]12CO[C@@H]1C[C@H](O)[C@@]1(C)C(=O)[C@H](O)C3=C(C)[C@@H](OC(=O)[C@H](O)[C@@H](NC(=O)OC(C)(C)C)c4ccccc4)C[C@@](O)([C@@H](OC(=O)c4ccccc4)[C@H]21)C3(C)C [Docetaxel] (first compound 4 µM, partner dose 0.0005 µM) | 22 | 20.7 | 38.4 | 24.7 | 53.2 | 48.7 | 45.5 | 37.1 | 24.9 | 33.5
12 | Cn1cc(C2=C(c3cn(C4CCN(Cc5ccccn5)CC4)c4ccccc34)C(=O)NC2=O)c2ccccc21 [Enzastaurin] + O=C(O)c1ccc2c(c1)nc(Nc1cccc(Cl)c1)c1ccncc12 [CX4945] (first compound 4 µM, partner dose 2 µM) | 63.3 | 56.6 | 88.4 | 82.4 | 96 | 63.3 | 108 | 73.6 | 36.2 | 70.3
13 | C[C@]12O[C@H](C[C@]1(O)CO)n1c3ccccc3c3c4c(c5c6ccccc6n2c5c31)CNC4=O [Lestaurtinib] + Nc1ccn([C@@H]2O[C@H](CO)[C@@H](O)C2(F)F)c(=O)n1 [gemcitabine] (first compound 0.02 µM, partner dose 0.002 µM) | 89.4 | 96.4 | 62.7 | 73.7 | 92.6 | 79.3 | 59.8 | 46.4 | 46.5 | 87.2
14 | C[C@]12O[C@H](C[C@]1(O)CO)n1c3ccccc3c3c4c(c5c6ccccc6n2c5c31)CNC4=O [Lestaurtinib] + N.N.[Cl][Pt][Cl] [cisplatin] (first compound 0.02 µM, partner dose 8 µM) | 47.9 | 79.1 | 60.2 | 55.4 | 77.4 | 68.9 | 83 | 84.6 | 72.1 | 58
15 | Cn1cc(C2=C(c3cn(C4CCN(Cc5ccccn5)CC4)c4ccccc34)C(=O)NC2=O)c2ccccc21 [Enzastaurin] + Cc1nc(Nc2ncc(C(=O)Nc3c(C)cccc3Cl)s2)cc(N2CCN(CCO)CC2)n1 [dasatanib] (first compound 4 µM, partner dose 0.02 µM) | 59.5 | 96.7 | 104 | 61 | 75.2 | 62.6 | 65.1 | 51.6 | 12.7 | 78.4
16 | Cn1cc(C2=C(c3cn(C4CCN(Cc5ccccn5)CC4)c4ccccc34)C(=O)NC2=O)c2ccccc21 [Enzastaurin] + Nc1ncn([C@H]2C[C@H](O)[C@@H](CO)O2)c(=O)n1 [decitabine] (first compound 4 µM, partner dose 0.5 µM) | 66.2 | 59.5 | 120 | 87.2 | 85.9 | 61.5 | 118 | 57.5 | 53.9 | 89.8
17 | Cn1cc(C2=C(c3cn(C4CCN(Cc5ccccn5)CC4)c4ccccc34)C(=O)NC2=O)c2ccccc21 [Enzastaurin] + CN(c1ncccc1CNc1nc(Nc2ccc3c(c2)CC(=O)N3)ncc1C(F)(F)F)S(C)(=O)=O [PF562271] (first compound 4 µM, partner dose 0.4 µM) | 73.1 | 73.3 | 89.2 | 48.6 | 76.8 | 47.5 | 68.2 | 62.3 | 55.1 | 82.3
